Experimental findings from US20260125444A1 (SHANGHAI MINWEI BIOTECHNOLOGY, published 2026) are described below.

One assay addresses human GLP-1 receptor (human, UniProt P43220). Nature of the assay: cell-based or functional assay.
In the next assay the target is T1, human GIP receptor (human, UniProt P48546 22-466).
T1 sequence (looked up): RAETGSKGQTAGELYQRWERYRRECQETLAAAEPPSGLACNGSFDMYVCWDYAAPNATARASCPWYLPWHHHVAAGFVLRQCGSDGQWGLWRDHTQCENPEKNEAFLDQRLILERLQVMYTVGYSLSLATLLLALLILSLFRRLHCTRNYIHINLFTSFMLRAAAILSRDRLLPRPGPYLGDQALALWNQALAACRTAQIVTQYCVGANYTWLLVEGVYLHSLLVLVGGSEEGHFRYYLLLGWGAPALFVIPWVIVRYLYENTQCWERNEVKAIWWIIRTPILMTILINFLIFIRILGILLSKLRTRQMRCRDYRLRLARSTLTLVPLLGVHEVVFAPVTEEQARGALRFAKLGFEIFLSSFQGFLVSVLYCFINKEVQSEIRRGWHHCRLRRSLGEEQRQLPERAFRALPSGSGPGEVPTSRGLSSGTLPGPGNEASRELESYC
Nature of the assay: cell-based or functional assay.

B1: 12C3-F fusion protein (Fc fusion)
chain: YGEGTFTSDYSIYLDKIAQKAFIEWLIAGGPSSGAPPPSGGGGSGGGGSGGGGSA[letters of human IgG4 Fc with S228P F234A L235A (EU numbers) left out]GGGGSGGGGSGGGGSHPIPDSSPLLQFGGQVRQVYLYTDDAQQTEAHLEIREDGTVGGAADQSPESLLQLKALKPGVIQILGVKTSRFLCQRPDGALYGSLHFDPEACSFRERLLEDGYNVYQSEAHGLPLHLPGNKSPHRDPAPRGPARFLPLPGLPPALPEPPGILAPQPPDVGSSDPLSMVGNSTGRSPSYAS
Regarding B1, in the assay with human GLP-1 receptor, the “GLP-1 EC50(nmol/L), CRE-luciferase reporter” value (shortened to “GLP-1 EC50(nmol/L)”) is 0.515 nmol/L. In addition, the “GIP EC50(nmol/L), CRE-luciferase reporter” value (“GIP EC50(nmol/L)” below) in the assay with human GIP receptor was determined as 0.055 nmol/L.

B2: 12C12-F fusion protein (Fc fusion)
chain: HSEGTFTSDYSILLDKIAQKAFIEWLIAGGPSSGAPPPSGGGGSGGGGSGGGGSA[letters of human IgG4 Fc with S228P F234A L235A (EU numbers) left out]GGGGSGGGGSGGGGSHPIPDSSPLLQFGGQVRQVYLYTDDAQQTEAHLEIREDGTVGGAADQSPESLLQLKALKPGVIQILGVKTSRFLCQRPDGALYGSLHFDPEACSFRERLLEDGYNVYQSEAHGLPLHLPGNKSPHRDPAPRGPARFLPLPGLPPALPEPPGILAPQPPDVGSSDPLSMVGNSTGRSPSYAS
B2: the “GLP-1 EC50(nmol/L)” value with human GLP-1 receptor is 0.642 nmol/L. In addition, in the assay with human GIP receptor, the “GIP EC50(nmol/L)” value stood at 0.006 nmol/L.

B3: 12C1-F fusion protein (Fc fusion)
chain: YGEGTFTSDYSILLDKIAQKAFIEWLIAGGPSSGAPPPSGGGGSGGGGSGGGGSA[letters of human IgG4 Fc with S228P F234A L235A (EU numbers) left out]GGGGSGGGGSGGGGSHPIPDSSPLLQFGGQVRQVYLYTDDAQQTEAHLEIREDGTVGGAADQSPESLLQLKALKPGVIQILGVKTSRFLCQRPDGALYGSLHFDPEACSFRERLLEDGYNVYQSEAHGLPLHLPGNKSPHRDPAPRGPARFLPLPGLPPALPEPPGILAPQPPDVGSSDPLSMVGNSTGRSPSYAS
Regarding B3, in the assay with human GLP-1 receptor, the “GLP-1 EC50(nmol/L)” value was 0.83 nmol/L. The “GIP EC50(nmol/L)” value with human GIP receptor was 0.064 nmol/L.

B4: 12C11-F fusion protein (Fc fusion)
chain: HGEGTFTSDYSIYLDKIAAKDFIEWLIAGGPSSGAPPPSGGGGSGGGGSGGGGSA[letters of human IgG4 Fc with S228P F234A L235A (EU numbers) left out]GGGGSGGGGSGGGGSHPIPDSSPLLQFGGQVRQVYLYTDDAQQTEAHLEIREDGTVGGAADQSPESLLQLKALKPGVIQILGVKTSRFLCQRPDGALYGSLHFDPEACSFRERLLEDGYNVYQSEAHGLPLHLPGNKSPHRDPAPRGPARFLPLPGLPPALPEPPGILAPQPPDVGSSDPLSMVGNSTGRSPSYAS
With B4, the “GLP-1 EC50(nmol/L)” value with human GLP-1 receptor amounted to 0.255 nmol/L. The “GIP EC50(nmol/L)” value with human GIP receptor worked out at 0.036 nmol/L.
